# Results taken from the supplement of paper PMC11417369.
# The list shows a part of the results.
# Tested on: PfSIP2 AP2 domain 1 (GST-tagged)
# Assay: gcPBM binding intensity (ln(normalized median fluorescence intensity)); higher = stronger DNA binding
# In short: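 After 1 h on an Agilent 4 × 180k array of primer-extended double-stranded 36-bp intergenic genomic probes and negative controls, bound GST-tagged P. falciparum DNA-binding domains were detected with Alexa488 anti-GST antibody and scanned at 488 nm. The domains had been expressed in E. coli, and binding took place in 1× PBS with 1% milk, 0.2 mg/ml BSA, 0.5% salmon testes DNA and 0.03% Triton X-100. Binding intensity is the highest Masliner-normalised natural-log median intensity across replicate spots of either probe orientation.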
row,Sequence,gcPBM binding intensity (ln)
1,ATATATATATATAATTGTACATTTTTATGTTTTATA [XGTACX_site4560],9.09
2,ATATGTAGTTTTTATTGTACGTGTAGAAGAAATAAT [XGTACX_site6608],7.35
3,TTCATTAAAATTATTACACACAGTTCTTCAACCAAA [CACACA_site3504],6.84
4,AATGATTTTCAATCGAAATGAAACTTAGAAGATATA [CACACA_negctrl_site1475],6.7
5,TTTTAAACAGGACACACACACATATAGATTTATATA [CACACA_site6560],7.04
6,TATATTTTAATTTGAAGTACTAATATTTATTTATAT [XGTACX_site7458],6.99
7,TATAACCATATATACACACACATATAAATATAAATA [CACACA_site7089],7.24
8,AAGGTGGAAACAATTACACACACACTAAAAAAAAAA [CACACA_site7493],6.98
9,ATATATATATATTTCGTGCACTGATAATATTATTTT,10.2
10,ATGAAAAAAAATAAAAAATATATATATATATATATA [CACACA_negctrl_site236],9.65
11,AATTAATATATAAATAATAAAAAAAAATATATAAAC [XGTACX_negctrl_site280],6.88
12,GAACGAAATAAGTGTGTGCACATGTAACCACAAATC [GTGCAC_site9829],8.48
13,CAATATTTTCATAGATGTACTTTGGACTTATTATAT [XGTACX_site4849],6.75
14,TAAATAAAAGATACGAGTACGTATGATGTTAACCTC [XGTACX_site8840],6.76
15,ATTTATATATAGGTGTGTCCACAAATAGTATGTAAA [XGTACX_site2916],7.2
16,GTATATAGTATGTAGAGTACTAATTTCCATATGTTC [XGTACX_site7816],7.05
17,TTTAAAATAACCAAAAACAAAAAGAAACACAAATGT [GTGCAC_negctrl_site705],7.11
18,GATCAAATAGAAAATACATGCAATGTGTGAAATAAC [TGCATGCA_site835],7.49
19,TTTCAAATGGAATGTGTGCACATAAATGTAAATAAA,9.06

row,Sequence,gcPBM binding intensity (ln)
1,AAAAAAAAAATTTACTGTACACATTTGGGATACTCA [XGTACX_site5191],6.79
2,CTTATTTAATGTATCACACACGAGAATAAAAAATAA [CACACA_site3020],7.07
3,TATAAGTTGATATATACACACATATATAAATATGTA [CACACA_site7526],6.96
4,TATTTATAAAAATATACACACATACAAATATGCATA [CACACA_site4555],6.94
5,ATGGTTTTCAGAAAAACATGCATACAATAATAAAAA [TGCATGCA_site815],7.06
6,AATTCTGGCAAAATAACACACACATATATTTTATAT [CACACA_site9064],7.12
7,GTTATAATTGAACTAGTGCATAAATATATTTTAATT [GTGCAC_site9851],9.01
8,TATCTTTTTTTTAATACACACAAATATATGAAAGTA [CACACA_site4161],7.02
9,ATATAAACACTGAATGCATGCACATATATATATATA [TGCATGCA_site940],9.89
10,GGGGGGGGAGGGTGAATACACACGTAATAATCATAA [CACACA_site1716],10.2
11,TTTTTTTTTACTAACTGTACTAAAGAAAAAAAAGGG [XGTACX_site3519],7.58
12,ATAAAGGAATTTTATACACACAACATATATATATAT [CACACA_site2861],9.57
13,ATGTGTATATGTGTGGGTACTTAATTTTTTTCTTTA [XGTACX_site5351],7.25
14,CGTATTATTATATAAACACACAAGGGGGCATGTATA [CACACA_site745],8.25
15,ATTTGTATATACATATGTACACATGTAGGCTCATAA [XGTACX_site1709],7
16,TTTCGTAAACTTTATGCACACACATATACATATTTC [CACACA_site8146],7.6
17,AGTATAACTTTTGCGCGTACACACATTTATCCTCTT [XGTACX_site429],7.38
18,TTTGAATACTGAATGGTGCAAATTGTTCTCCCCATG,10.1
19,TATATTAAAATAATCACACACATCAATTAATGGTAA [CACACA_site1234],6.72

row,Sequence,gcPBM binding intensity (ln)
1,TATAATAATATTTACACACGCATATGTTATATATAT [CACACA_site1477],7.28
2,TACAAATGCGTATGTCAATATATGGAGAAATAAATA [TGCATGCA_negctrl_site290],7
3,TGTATATGGTTTGTGCAAAAATTTATTAATGTGTAA [TGCATGCA_negctrl_site374],7.35
4,TGAAAAATATAAGGTTGTACTTACATCGGGAATAAT [XGTACX_site4701],7.04
5,AATTATGTGTGTCAATGTACACGATTTACATAATAT [XGTACX_site5150],7.03
6,AATATATGGTTTCTTGATATTAAATTCAATTTAATG [CACACA_negctrl_site69],6.77
7,ATCCGTGGGTGAAATACACACATGATAATGTGAATG [CACACA_site4662],6.65
8,ATAAATGAACAAGTGGCACACACACCGTATAACTAA [CACACA_site9047],6.91
9,AAAAAAAAAAAAAAAAGTACATATAATAAATAATGA [XGTACX_site7931],6.89
10,TATATCTTAATATTTACACACATGCGCACCCATAAA [CACACA_site5349],12
11,ACACATACAACGTGGTGTACAAATAATTATAATCAA [XGTACX_site2287],7.14
12,AATCTTTGTAATAAAAGTACATTAATTTTATTAATA [XGTACX_site8325],7.37
13,TAAGTATATATATTTACACACATTTGTTTTTTTTTA [CACACA_site3784],6.79
14,TTTTAAATACTTTATTGTACATTATATATATATATA [XGTACX_site7021],9.44
15,CATATGTTATATGTAGTGCATTACTATAGGATTTAT [GTGCAC_site9860],9.38
16,TATTTTGCAAAATGTGCATGTTGTGTATTATGTGAC [TGCATGCA_site59],8.18
17,GTATAATTGGAAATTACACACCTTAGAATGTAACAT [CACACA_site4059],6.79
18,ATTATAATATATATATGTACATATATATATAATACT [XGTACX_site5092],7.15
19,TATAATATACTATGTGGTACATATATATATTTATAG [XGTACX_site4556],7.03
